Experimental data from PubChem BioAssay AID360 (National Center for Advancing Translational Sciences (NCATS), 2006).
Out of some 48,000 compounds screened, about 550 (1.1%) were called active. Inconclusive results (about 4%) are left out. Cut-off read from the data, not from the text of the source: active = potency below about 15 µM; inconclusive = mostly about 16 µM to 33 µM; inactive = weaker than that. This is one part of the list.

Target: Lysosomal acid glucosylceramidase (Homo sapiens) (UniProt P04062)
Sequence of UniProt P04062 (P04062 whole entry, looked up): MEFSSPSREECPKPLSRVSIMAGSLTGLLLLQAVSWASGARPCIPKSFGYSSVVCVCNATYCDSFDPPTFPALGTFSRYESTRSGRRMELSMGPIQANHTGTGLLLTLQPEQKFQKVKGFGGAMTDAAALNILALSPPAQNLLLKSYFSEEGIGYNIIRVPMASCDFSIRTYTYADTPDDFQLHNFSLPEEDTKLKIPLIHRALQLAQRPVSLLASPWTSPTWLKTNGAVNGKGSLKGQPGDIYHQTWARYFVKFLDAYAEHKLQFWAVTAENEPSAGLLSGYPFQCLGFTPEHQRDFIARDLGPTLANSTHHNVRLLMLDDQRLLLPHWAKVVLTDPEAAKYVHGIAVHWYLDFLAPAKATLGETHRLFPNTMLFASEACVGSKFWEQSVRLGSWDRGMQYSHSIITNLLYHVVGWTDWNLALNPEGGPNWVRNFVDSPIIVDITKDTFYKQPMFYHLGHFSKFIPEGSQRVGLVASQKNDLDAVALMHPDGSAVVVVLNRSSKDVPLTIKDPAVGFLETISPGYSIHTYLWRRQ
Assay: Glucocerebrosidase;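 note: the screen sought inhibitors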
Details: purified enzyme, resorufin glucoside fluorescence (screen aimed at inhibitors), 20 min
Outline: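 Compounds titrated against 0.2 nM normal enzyme, 30 uM resorufin beta-D-glucopyranoside substrate, citrate/phosphate buffer with taurocholate and tween-20, pH 5.9. Reaction ran 20 min at room temperature; fluorescence (Ex 548/Em 600) gave AC50.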
Potency is the fitted concentration of half-maximal effect.

Potency, inactive:
CC(C)(C)C(=O)Nc1ncc(C(F)(F)F)cc1Cl > 76.9 µM
CCOC(=O)CSc1nnc(-c2ccco2)n1-c1ccccc1 > 76.9 µM
Cc1ccc(-c2nn3c(C)nnc3s2)cc1NC(=O)c1ccc(-c2ccc(Cl)cc2Cl)o1 > 76.9 µM
Cc1cccc(N(CC(=O)NCc2ccc3c(c2)OCO3)C(=O)CCC(=O)Nc2ccccn2)c1 > 76.9 µM
CCC(C)(C(=O)NC1CCCC1)N(Cc1cccs1)C(=O)Cc1cccs1 (stereo not given) > 76.9 µM
CCCCC(=O)Nc1ccc2c(c1)nc1n2CCSC1
CC1=C(C(=O)Nc2ccccc2)C(c2cccs2)C(C#N)=C(SCC#N)N1 (stereo not given) > 76.9 µM
O=C(O)Cn1cc(C(=O)c2cccs2)c2ccccc21 > 76.9 µM
COCCNC(=O)C(c1cccs1)N(C(=O)Cn1nnc2ccccc21)c1cccc(C(C)=O)c1 (stereo not given) > 76.9 µM
CCOC(=O)Nc1ccccc1N1C(=O)c2ccccc2C1=O > 76.9 µM
Cc1nc2ncnn2c(C)c1CCC(=O)N1CCc2ccccc2C1 > 76.9 µM
C=CCNc1ccc(F)c(F)c1N1CCCCCC1=O > 76.9 µM
Cc1ccnc(NS(=O)(=O)c2ccc(NS(=O)(=O)c3cccs3)cc2)n1 > 76.9 µM
CCOC(=O)c1nn(-c2ccccc2C)c(=O)c(C#N)c1C > 76.9 µM
CCOCCCNC(=O)CCS(=O)(=O)Cc1ccc(C)cc1 > 76.9 µM
O=C(NCCc1ccc(Cl)cc1)C1CCN(S(=O)(=O)N2CCCCC2)CC1 > 76.9 µM
C#CCNc1cc(C)nc2ncnn12 > 76.9 µM
CC(=O)Nc1ccc(Oc2cc(C#N)c(C#N)cc2N2CCCCCC2)cc1 > 76.9 µM
CCN1CCN(C(c2cc(OC)ccc2OC)c2nnnn2Cc2ccccc2)CC1 (stereo not given) > 76.9 µM
CC1CCN(C(=O)CSc2nc3cccnc3n2C)CC1 > 76.9 µM
COCCNC(=O)C(c1ccc(C)o1)N(C(=O)c1snc(C(N)=O)c1N)c1ccc(C)c(C)c1 (stereo not given) > 76.9 µM
Cn1c(=O)c2c(nc(CN3CCN(c4ccccc4)CC3)n2Cc2ccccc2F)n(C)c1=O > 76.9 µM
CCN(CC)CCc1c(C)[nH]c(C(=O)OCc2ccccc2)c1C > 76.9 µM
Cc1cc(=O)c2ccccc2[nH]1 > 76.9 µM
NC(=O)C1(N2CCCCC2)CCN(Cc2nc3ccccc3c(=O)[nH]2)CC1 > 76.9 µM
COC(=O)COc1ccc(S(=O)(=O)Nc2cc(OC)ccc2OC)cc1 > 76.9 µM
CC(C)(C)NC(=O)Cn1nnc(-c2ccc(S(C)(=O)=O)cc2)n1 > 76.9 µM
COc1ccc(NC(=O)c2ccc(S(=O)(=O)N(C)C)cc2)cc1OC > 76.9 µM
Nc1nonc1-n1nnc(C(=O)O)c1-c1cccs1 > 76.9 µM
COc1cc(-c2noc(CCC(N)=O)n2)cc(OC)c1OC > 76.9 µM
O=S(=O)(N1CCOCC1)N1CCN(c2ccccc2F)CC1 > 76.9 µM
COCCNc1nc(-n2nc(C)cc2C)nc2sc3c(c12)CCCC3
COC(=O)c1ccccc1NC(=O)Cn1cc(Br)cn1 > 76.9 µM
CCC(=O)N1CCc2cc(S(=O)(=O)Nc3ccc4c(c3)OCCO4)ccc21 > 76.9 µM
Cc1nc(N2CCN(c3ccccc3)CC2)[nH]c(=O)c1Cc1cccc2ccccc12 > 76.9 µM
CCOC(=O)c1ccc(Oc2nc(NC)nc(OC)n2)cc1 > 76.9 µM
CCN(C(=O)COC(=O)c1cccnc1SC)C1CCS(=O)(=O)C1 (stereo not given) > 76.9 µM
COc1ccc(-c2nc(S(=O)(=O)c3ccc(C)cc3)c(N3CCCC3)o2)cc1 > 76.9 µM
COCc1cc(C)nc(SCC(=O)N2CCC(C)CC2)c1C#N > 76.9 µM
COc1ccc(S(=O)(=O)N(C)CC(=O)Nc2c(F)cccc2F)cc1 > 76.9 µM
Cc1nn(-c2ccccc2)c2c1C1(C(=O)N(C)c3ccccc31)N(c1ccccc1)C(=O)N2 (stereo not given) > 76.9 µM
COc1ccc(-c2nnn(CC(=O)N(CC(=O)NC3CCCC3)Cc3cccs3)n2)cc1OC > 76.9 µM
Cc1cc(C(=O)COC(=O)CCCN2C(=O)c3ccccc3C2=O)c(C)n1C > 76.9 µM
Cc1cccc(-c2nsc(SCC(=O)N3CCCC3)n2)c1 > 76.9 µM
CCOc1cc(S(=O)(=O)N(CC)CC)ccc1Br > 76.9 µM
NC(=O)CSc1nnc(-c2cc3ccccc3o2)n1Cc1ccccc1 > 76.9 µM
Cc1ccccc1Cc1c(C)nc2nc(SCC(=O)NCc3ccco3)nn2c1C > 76.9 µM
CCOc1cc(CO)ccc1OCC(=O)N1CCCCC1 > 76.9 µM
CN(C)S(=O)(=O)c1ccc(C(=O)Oc2cc(=O)[nH]c3ccccc23)cc1
COc1ccccc1Nc1ncccc1C(=O)O > 76.9 µM
Cc1nc(C)c(C(=O)C2=C(O)C(=O)N(CCN(C)C)C2c2cccs2)s1 (stereo not given) > 76.9 µM
Cn1c(CN2CCOCC2)nnc1SCC(=O)Nc1ccc2c(c1)OCCO2 > 76.9 µM
O=C1NC(c2ccccc2)C(C(=O)c2cccs2)C(O)(C(F)(F)F)N1 (stereo not given) > 76.9 µM
COC(=O)c1ccccc1NC(=O)CSc1nnc(COc2cccc(OC)c2)n1C > 76.9 µM
CC(NC(=O)NC12CC3CC(CC(C3)C1)C2)C1CCCO1 (stereo not given) > 76.9 µM
COc1ccc(CC(=O)Nc2nncs2)cc1OC > 76.9 µM
Cn1c(=O)cc(OCCCC(=O)N2CCN(Cc3ccc4c(c3)OCO4)CC2)c2ccccc21 > 76.9 µM
CN(CC(=O)N1CCN(C2CCCCC2)CC1)S(=O)(=O)c1cccc2nsnc12 > 76.9 µM
Cc1ccc(S(=O)(=O)N(C)c2nonc2C)cc1 > 76.9 µM
CCCc1[nH]nc2c1C1(C(=O)N(CC)c3ccccc31)C(C#N)=C(N)O2 (stereo not given) > 76.9 µM
CCOc1ccc2nc(NC(=O)C(CC)Sc3nc(C)cc(=O)[nH]3)sc2c1 (stereo not given) > 76.9 µM
CCOC(=O)C(NC(=O)c1ccc(F)cc1)(Nc1nnc(C)s1)C(F)(F)F (stereo not given) > 76.9 µM
Cc1cc(C(=O)OCC(=O)N2CCOCC2)c2ccccc2n1 > 76.9 µM
Cc1cc(C)c(S(=O)(=O)N(CC(=O)O)C2CCCCC2)c(C)c1 > 76.9 µM
COc1ccccc1-c1nnn(CC#N)n1 > 76.9 µM
COc1ccc(C(=O)NC2CCCCC2)cc1S(=O)(=O)N1CCCC1 > 76.9 µM
CC(C)OC(=O)CN1C(=O)C(C)(C)Oc2ccc(C(=O)NC(C)(C)C)cc21 > 76.9 µM
O=C(N1CCCCC1)N1CCN(C(=O)N(c2ccccc2)c2ccccc2)CC1 > 76.9 µM
COc1cc(NC(=O)Nc2ccccc2)c(OC)cc1NC(=O)CN1CCCCC1 > 76.9 µM
COCCNC(=O)c1c[nH]c2ccc(OC)cc2c1=O > 76.9 µM
CCCCCSc1nnc(-c2cc(Br)ccc2N)c(=O)[nH]1
CCNCCNC(=O)c1c(O)c2c([nH]c1=O)CCCC2 > 76.9 µM
CCn1ncc(Cl)c1C(=O)Nc1cc(Cl)ccc1Cl > 76.9 µM
CCOC(=O)c1cc(C#N)c(SCC(=O)c2cc(C#N)c(SC)nc2C)[nH]c1=O > 76.9 µM
COC(=O)[C@H](CCSC)NC(=O)NC1CCN(Cc2ccccc2)CC1 > 76.9 µM
COCCCNC(=O)Cn1nnc(-c2ccccc2NC(=O)c2ccc(F)cc2)n1 > 76.9 µM
CCN1C(=O)C2C(c3cccc(F)c3)NC(CC)(C(=O)OC)C2C1=O (stereo not given) > 76.9 µM
O=S(=O)(NCCC1=CCCCC1)c1cccc2nsnc12 > 76.9 µM
O=C(c1nc(-c2ccccc2)n(-c2ccccc2)n1)N1CCCCCC1 > 76.9 µM
COc1ccc(CN(CCN2CCOCC2)C(=O)c2c(F)cccc2F)cc1OC > 76.9 µM
CCOC(=O)c1ccc(S(=O)(=O)N2CCN(S(=O)(=O)CC)CC2)cc1 > 76.9 µM
CC(C)Sc1nc2sc3c(c2c2nnc(SCC(=O)NCc4ccco4)n12)CCCC3 > 76.9 µM
COc1ccc(CCNC2=NCC(C)S2)cc1 (stereo not given) > 76.9 µM
COC(=O)Cn1cnc2sc(C)c(S(=O)(=O)N3CCN(c4ccccc4OC)CC3)c2c1=O > 76.9 µM
CCOc1ccc(-c2nc(CSCC(=O)NCc3ccco3)c(C)o2)cc1 > 76.9 µM
Cc1ccc(CS(=O)(=O)CCC(=O)NCCCN2CCCC2=O)cc1 > 76.9 µM
Cc1ccc(-c2nnc3sc(CCc4ccccc4)nn23)cc1 > 76.9 µM
O=C1c2ccccc2S(=O)(=O)N1Cc1cccc(S(=O)(=O)N2CCOCC2)c1 > 76.9 µM
Cc1csc(NC(=O)C2CCCO2)n1 (stereo not given) > 76.9 µM
Cc1scc(C(=O)Nc2ccon2)c1-c1ccccc1 > 76.9 µM
